# Reference: the supplement of paper PMC4466236
# The full ranking holds about 33,000 sequences; the median of “E-score (dimensionless, -0.5 to 0.5)” is about -0.058, and the highest 2% start at about 0.35. Some of the results follow.
# Tested on: MvaT
# Test: PBM 8-mer E-score (mean of HK and ME arrays) (E-score (dimensionless, -0.5 to 0.5)); higher = stronger relative binding preference; most listed sequences are background and not binding sites
# How it was run: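 Reported values are rank-based E-scores, taken as the mean of two universal arrays and parsed with a custom script. Each 8-mer score falls between -0.5 and 0.5. The arrays, ME and HK, were double-stranded 60-mers with a constant 25-mer primer region and a variable 35-mer region covering all 8-mers. They were probed, by an earlier protocol, with full-length P. aeruginosa MvaT carrying an N-terminal glutathione S-transferase fusion.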
row,Sequence,PBM 8-mer E-score
1,CCAGAGGG,-0.247
2,ATCTTTGG,0.0301
3,GATCCTAA,-0.0755
4,CGTACCAG,-0.207
5,AGCCGTCA,-0.216
6,TTGGACAA,0.138
7,ATGTACAT,0.337
8,AGATCGTA,0.0727
9,ATGGTAAT,0.239
10,AACCATGG,-0.0807
11,AGCCACGG,-0.272
12,CTAGGTGA,-0.0745
13,ACGCACGC,-0.16
14,CGTAGCCA,-0.209
15,CAGTGCAG,-0.204
16,ACTGAAGG,-0.209
17,AAACCTGA,0.0327
18,GCGCTTGA,-0.14
19,GCTTAAGC,-0.025
20,CTCGGATA,-0.00375
21,CGTCAAGA,-0.19
22,TAGACCTA,-0.0203
23,CTTCTTTC,0.015
24,GCGCGAGA,-0.134
25,ATGGGGTC,-0.107

row,Sequence,PBM 8-mer E-score
1,TGAGGTAA,0.0834
2,CGTAAACC,-0.0508
3,ATGATCAT,0.123
4,CGAGGGCC,-0.295
5,AAAGGAGG,-0.167
6,CAATAATC,0.19
7,GAAGTCTC,-0.0692
8,CGGAAACA,0.0997
9,GATACACC,-0.0638
10,AGGCCGGA,-0.0961
11,ACGAACGT,-0.161
12,CATAGACG,-0.0951
13,CGCGACAA,-0.0861
14,AGCCACAT,-0.177
15,AACAGTGT,0.123
16,CACAAGCC,-0.235
17,CGACGATC,-0.205
18,CCCATTTA,0.0372
19,CTCACTTC,-0.111
20,GATTTGGC,-0.105
21,ATGCCCGA,-0.184
22,AGCATAGA,-0.149
23,ACGTCACT,-0.0725
24,CCACATAA,0.172
25,CGGCGCAA,-0.16

row,Sequence,PBM 8-mer E-score
1,TAATATTA,0.474
2,CCTCTCGC,-0.254
3,ATCGCAAT,0.0839
4,CGGTTGAA,0.0195
5,AGAGACGC,-0.292
6,ATCGGAGG,-0.325
7,ACATGCGG,-0.037
8,AGTGGAGG,-0.269
9,GCTATGCA,-0.113
10,CTAGAGCA,-0.206
11,ATCTACTC,0.0097
12,GTACAGGA,-0.0833
13,ACTGTAAT,0.351
14,ACGCCGTG,-0.267
15,ATTCTCAC,-0.0138
16,GCCGCGAC,-0.169
17,AATCATCG,-0.00377
18,GGGCGACA,-0.032
19,ATCCCGAG,-0.0733
20,ATTAGGCC,-0.0555
21,GAGGAATA,0.197
22,CATGTTAA,0.25
23,ACCAGTCC,-0.112
24,ACTTTTTG,0.122
25,GTACTACA,0.143

row,Sequence,PBM 8-mer E-score
1,TAGAATGA,0.0266
2,GACTTATC,0.0104
3,CACTTGAC,-0.0112
4,AGCTACTA,0.0104
5,GCCCCGGC,-0.269
6,CGGTCCAC,-0.0723
7,AAGAGCCG,-0.0498
8,GGGCACGA,-0.214
9,CCTTGACC,-0.202
10,GGCGAGAA,-0.105
11,AGTCCGTG,-0.0826
12,CTGAACTA,0.135
13,CGTCGTAG,-0.142
14,CGAGCGAA,-0.0361
15,TTGCCCAA,0.0603
16,GTCGAGAC,-0.164
17,AATTGCAG,0.102
18,ACGGCACG,-0.204
19,CGTATGTA,0.0655
20,TACTCACA,-0.00265
21,GAGGGTCC,-0.211
22,AACTCATG,-0.0512
23,GGCGGTCA,-0.208
24,TAGTTAAA,0.273
25,CATGATCC,-0.133

row,Sequence,PBM 8-mer E-score
1,GCGCCGAA,-0.17
2,ACCCAGCC,-0.017
3,CAGAGCCC,-0.374
4,CCGTGGGA,-0.301
5,CCTACCTA,-0.0884
6,AAAGCCGA,-0.0186
7,ACGTCATC,-0.144
8,GCCGACCC,-0.307
9,ACTGTTGC,0.0922
10,GAGTCAAA,0.0768
11,AGCTAAGA,-0.0322
12,CCATGGGC,-0.256
13,CATTCTCG,-0.135
14,GGTGTGAC,-0.159
15,CAACACTC,-0.147
16,ATTGATAC,0.206
17,CACATAAA,0.179
18,CGCCCATA,-0.0952
19,TAGTCAGA,-0.0711
20,GCCGTGTA,-0.0278
21,GTCTGAGA,-0.139
22,GACTTCCA,-0.0343
23,CATCTCAA,-0.0274
24,CTCGAAGA,-0.164
25,ATCTAGAC,0.00671

row,Sequence,PBM 8-mer E-score
1,TGACCGCA,-0.174
2,CAGAATAC,0.0288
3,AAATCTCA,0.0206
4,AATGTAAC,0.267
5,CCCCGCAC,-0.305
6,AGGGTCAC,-0.138
7,CCAATCCG,-0.164
8,GAGGGTTA,-0.201
9,TAAATGTA,0.359
10,AGCAAATC,-0.047
11,GGAGAGGA,-0.311
12,AAAAAGTT,0.357
13,GGACATCA,-0.143
14,AGATGTTA,0.303
15,TGAATTCA,0.141
16,CCACGTCA,-0.0822
17,GATCGTGA,-0.153
18,CAGATACG,-0.176
19,AAACGCCT,-0.177
20,AGATATGA,0.0699
21,CGCTCAGC,-0.192
22,GAAATGTA,0.259
23,CGTCTGCA,-0.193
24,CGAGTGAA,-0.139
25,CCAAGGTA,-0.18

row,Sequence,PBM 8-mer E-score
1,GGCAGGTA,-0.17
2,ATATTAGA,0.407
3,GTGTTAAA,0.177
4,CCATGCCG,-0.105
5,AAAGACTC,0.0128
6,AGAAACGC,-0.00638
7,ATGTCCGG,-0.0529
8,ACCGGCTA,-0.232
9,GGAAGCGA,-0.201
10,GCTTGACC,-0.22
11,AAGGATAA,0.282
12,AAAGGAGA,-0.198
13,GTCTTCAC,0.00606
14,GGGGCCTA,-0.367
15,CTATCAAG,-0.0772
16,GTAGTAAA,0.154
17,ACAACTAC,0.297
18,ATCCGCAG,-0.144
19,CGCTATAG,-0.0902
20,GCACGTAA,0.0142
21,GTCTTCCA,0.0231
22,ACATAATG,0.302
